# The campaign covered roughly 110,000 compounds. About 230 (0.21%) showed an effect of 50% or more. The list shows a part of the results.
# Molecular target: DPAP1 (Plasmodium falciparum, UniProt Q8IIJ9)
# Test: primary screen, percent inhibition; read by cleavage of a fluorogenic dipeptide substrate; higher = more effect of the substance
# Design: species or system P. falciparum D10 trophozoite lysates; single well
# 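Note: 30 min substrate incubation versus DMSO and 10 µM JCP410 controls.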
# Chain of DPAP1 (Q8IIJ9 whole entry, looked up): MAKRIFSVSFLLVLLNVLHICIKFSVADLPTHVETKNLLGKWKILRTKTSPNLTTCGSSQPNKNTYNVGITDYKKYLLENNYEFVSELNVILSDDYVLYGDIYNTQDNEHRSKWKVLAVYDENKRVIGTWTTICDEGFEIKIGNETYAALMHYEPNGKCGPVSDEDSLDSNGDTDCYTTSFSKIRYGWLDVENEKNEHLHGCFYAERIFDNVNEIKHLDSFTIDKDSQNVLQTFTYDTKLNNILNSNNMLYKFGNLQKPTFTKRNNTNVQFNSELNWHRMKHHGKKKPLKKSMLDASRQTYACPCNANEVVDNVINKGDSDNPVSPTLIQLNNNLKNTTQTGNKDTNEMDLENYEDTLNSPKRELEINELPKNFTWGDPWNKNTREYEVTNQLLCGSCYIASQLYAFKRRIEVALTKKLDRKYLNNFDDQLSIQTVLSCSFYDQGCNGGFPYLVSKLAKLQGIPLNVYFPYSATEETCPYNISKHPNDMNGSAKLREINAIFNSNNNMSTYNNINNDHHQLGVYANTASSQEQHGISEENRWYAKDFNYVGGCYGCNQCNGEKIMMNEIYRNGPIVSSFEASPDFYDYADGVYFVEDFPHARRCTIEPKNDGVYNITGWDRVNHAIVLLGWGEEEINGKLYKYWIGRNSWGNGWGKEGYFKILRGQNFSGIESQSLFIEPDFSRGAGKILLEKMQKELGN
row,SMILES,% Inhibition @ 10 uM [%]
1,Cc1ccc2c(cnn2C(=O)CCC(=O)NCCC(C)C)c1,6.89
2,O=C1C2C3C=CC(C3)C2C(=O)N1Cc1ccc(Cl)cc1 (stereo not shown),-5.88
3,COc1ccccc1S(=O)(=O)Cc1ccc(C(=O)NCC2CCCO2)o1 (stereo not shown),-3.32
4,CCN1C(=O)C(C(=O)N(Cc2ccccc2)Cc2ccccc2)C2CC1(C)Oc1ccccc12 (stereo not shown),2.03
5,CC1Cc2cc(C(=O)C3=C(O)C(=O)N(CCCN4CCOCC4)C3c3ccncc3)ccc2O1 (stereo not shown),-8.23
6,COc1cc(C2=N/C(=C\c3coc4ccccc4c3=O)C(=O)O2)cc(OC)c1OC,-2.41
7,O=C1OC(c2ccc(Cl)cc2)=C/C1=C\c1ccco1,-0.357
8,O=C(Cn1cccc1C(=O)c1ccccc1)NCCC1=CCCCC1,2.76
9,CCOc1cc(C2NC(C(=O)O)CS2)ccc1OCc1ccccc1Cl (stereo not shown),-5.11
10,CC(C)c1ccc(/C=C/C(=O)NC(C)c2ccccc2)cc1 (stereo not shown),6.8
11,NC(=O)c1cc(S(=O)(=O)N2CC=C(c3ccccc3)CC2)cs1,-3.74
12,COc1ccc(CN2CCN(Cc3ccc(F)cc3)CC2)c(OC)c1,-0.999
13,CCc1c(-c2ccccc2)n(C2CCCCC2)c2nc3c(c(=O)n(C)c(=O)n3C)n12,-0.703
14,O=C(Nc1ccccc1C(=O)O)c1cccc([N+](=O)[O-])c1,3.25
15,COCCNC(=O)CCn1nc(-c2ccc(C)cc2)ccc1=O,3.24
16,CCC12CC3CC(O)(C1)CC(C(=O)O)(C3)C2 (stereo not shown),3.48
17,O=C(CN1CCN(Cc2ccc3c(c2)OCO3)CC1)NCc1ccc(F)cc1,4.57
18,CCc1ccc(/C=c2\sc3ncnn3c2=O)cc1,1.91
19,COc1ccccc1C(=O)N(Cc1ccc(C(C)(C)C)cc1)Cc1ccco1,2.29
20,COc1ccc(N(CC(=O)NCc2ccccc2C)S(=O)(=O)c2ccccc2)cc1Cl,0.727
21,Cc1ccc(S(=O)(=O)N(C)CC(=O)Nc2ncc(C(F)(F)F)cc2Cl)cc1,-4.52
22,COc1ccc(-c2csc(/C(C#N)=C/Nc3ccc(C(N)=O)cc3)n2)cc1OC,2.08
23,Cc1noc2ncnc(N3CCCC(C(=O)NCc4cccnc4)C3)c12 (stereo not shown),-0.975
24,COc1ccc(NC(=O)c2ccc(OC(F)F)c(OC)c2)cc1OC,3.52
25,Cc1ccc(C)c(S(=O)(=O)N2CCN(S(=O)(=O)c3cc(C)ccc3C)C(C)C2)c1 (stereo not shown),-6.6

row,SMILES,% Inhibition @ 10 uM [%]
1,COCc1cc(O)n2nc(C)c(-c3ccc(Cl)cc3)c2n1,1.72
2,COc1ccc(NC(=O)Nc2ccc(SC(F)(F)F)cc2)cc1,3.06
3,COc1ccc(S(N)(=O)=O)cc1C(=O)NC1CCN(C)CC1,-5.45
4,CC(C)C12CN3CN(C1)CC(C(C)C)(C3)C2=O,-0.807
5,Cc1cn2cc(-c3ccc4ccccc4c3)nc2s1,-2.2
6,Cc1ccc(CN2CCN(c3cccc(C(F)(F)F)c3)CC2)c(C)c1,-0.127
7,CCOC(=O)N1CCC(NC(=O)C(NC(=O)C2CCC(C)CC2)C(C)CC)CC1 (stereo not shown),-0.972
8,Cc1ccc(NC(=O)Nc2cc(Cl)ccc2Cl)cc1,0.161
9,CC(NCc1ccccc1Cl)c1ccccc1 (stereo not shown),2.01
10,CCN1C(=O)c2ccc(C(=O)Nc3cccc(C(=O)NC(C)(C)C)c3)cc2C1=O,-4.39
11,O=C(CCc1ccccc1)Nc1ccc(S(=O)(=O)N2CCCCC2)cc1,0.408
12,CN(C)CC(=O)c1ccc2cc[nH]c2c1,-1.08
13,O=C(Nc1c2c(nn1-c1ccc(Cl)cc1)CS(=O)(=O)C2)c1ccc2c(c1)OCO2,1.45
14,Cc1nn(S(=O)(=O)c2ccc(Br)cc2)c(C)c1Sc1ccccc1,-0.736
15,Cc1ccc(N(Cc2ccc(C(=O)Nc3ccc(C(N)=O)cc3)cc2)S(C)(=O)=O)cc1C,0.727
16,Cc1nc(=O)c(-c2ccccc2)c(C)n1-c1ccccc1,2.22
17,Cc1cccc(NC(=O)C(NS(=O)(=O)c2ccc3nc(C)sc3c2)C(C)C)n1 (stereo not shown),-1.7
18,O=C1C2C3c4ccccc4C(c4ccccc43)C2C(=O)N1c1ccc(Cl)cc1 (stereo not shown),-2.47
19,CCCN1C(=O)c2n[nH]c(C)c2C1c1cccnc1 (stereo not shown),-4.67
20,NC(=O)c1ccc(NC(=O)C2CCCCC2C(=O)O)cc1 (stereo not shown),-5.15
21,CC(C)(C)c1cc(C(=O)Nc2cccc3ccccc23)cc(C(C)(C)C)c1,-5.33
22,CN1CCN(S(=O)(=O)c2ccc(C(=O)O)cc2)CC1,1.7
23,COc1ccc(C(=O)Nc2cccc3c2CCCC3)c(OC)c1,17.1
24,Oc1c(/C=N/c2cccc(Cl)c2)sc2ccccc12,1.37
25,Cc1ccc(NS(=O)(=O)c2cc(C(=O)O)c(Cl)cc2Cl)cc1C,-6.68

row,SMILES,% Inhibition @ 10 uM [%]
1,Cc1ccc(OCC(=O)N2CCOCC2)c(Br)c1,6.83
2,Cc1cc(NC(=O)c2cc(-c3ccc(O)cc3)on2)n(-c2ccccc2)n1,3.89
3,CSc1nc2ccccc2n1C1CCCCC1,-1.55
4,CCOc1cc(CNCCSc2nnnn2C)cc(Br)c1OCC,-1.71
5,Cc1ccc(CN(C(=O)C(C)Oc2ccc(C(C)C)cc2)C2CCS(=O)(=O)C2)o1 (stereo not shown),-2.85
6,COc1ccc(C(=O)/C=C/c2ccc(C)cc2)c(OC)c1,2.54
7,COc1ccccc1NC(=O)CSc1nc(C)c2c(c1C#N)CCCC2,-2.45
8,COc1ccc(S(=O)(=O)N2CCN(C3CCC(C)CC3)CC2)cc1 (stereo not shown),6.91
9,C=CCOC(=O)C1=C(C)N=C(C)/C(=C(/O)OCC=C)C1/C=C/c1ccccc1 (stereo not shown),-1.93
10,CCOC(=O)N1CCN(C(=O)C2CCN(S(=O)(=O)N(CC)CC)CC2)CC1,0.955
11,CC1=C(C(=O)NCCCN2C(C)CCCC2C)C2(CCCCC2)OC1=O (stereo not shown),3.72
12,CC1CCCCN1c1nnc(NC(=O)NCc2ccc(F)cc2)s1 (stereo not shown),-2.85
13,CCn1cc(NC(=O)NCC2CCCCC2)c(=O)c2ccc(C)nc21,2.29
14,CCCC(=O)c1c(C)[nH]c(C(=O)OCC)c1C,3.03
15,CCc1nc2ccccc2n1Cc1ccc(C(C)(C)C)cc1,1.13
16,O=C(NCc1cccnc1)c1cc2nc(-c3ccco3)cc(C(F)(F)Cl)n2n1,1.81
17,C=Cc1ccc(Cn2c(C)c(CNCCc3ccc(OCC)c(OCC)c3)c(C(=O)O)c2C)cc1,-0.23
18,Cn1c(=O)c2c(n(C)c1=O)[n+](C)cn2Cc1ccccc1,4.1
19,COc1ccc(OC)c(NS(=O)(=O)CC(C)C)c1,-0.13
20,CC(NC(=O)C(NS(=O)(=O)c1cccc2nsnc12)C(C)C)c1ccccc1 (stereo not shown),-4.34
21,Cc1c(Cl)c(C(=O)NC2C3CC4CC(C3)CC2C4)nn1C (stereo not shown),2.38
22,N#CCc1ccc(NC(=O)c2ccc(Br)o2)cc1,-8.48
23,CCCCSCCCNC(=O)CSCc1nc(-c2ccc(OC)c(OC)c2)oc1C,-1.05
24,Cc1ccc(/C=C2\N=C(c3cncc(Br)c3)OC2=O)cc1,-0.0894
25,N#CCCN1c2ccccc2Sc2ccc(Cl)cc21,3.06

row,SMILES,% Inhibition @ 10 uM [%]
1,O=C1Cc2ccccc2C(c2cccc(Cl)c2Cl)N1 (stereo not shown),-4.35
2,CCOc1ccccc1N1CCN(C(=O)c2c(OC)cccc2OC)CC1,-8.49
3,COc1cc2c(cc1OC)C1C(C(=O)N(C)Cc3ccccc3)c3ccccc3C(=O)N1CC2 (stereo not shown),4.56
4,COc1cccc(OC)c1C(=O)Nc1cc(C)ccn1,-1.41
5,Nc1c(-c2ccccc2)n[nH]c1-c1ccccc1,3.44
6,CC1(C)Cc2c(c(N3CCOCC3)nc3sc4c(=O)n(-c5ccccn5)cnc4c23)CO1,-5.41
7,O=C1c2ccccc2C(=O)C1c1ccncc1,-1.59
8,COc1ccc(CCNS(=O)(=O)c2ccc(-c3cc(C(F)(F)F)no3)s2)cc1OC,3.57
9,CCOc1ccc2nc(NC(=O)Cc3nn(C)c(=O)c4ccccc34)sc2c1,-0.458
10,CCOC(=O)c1cnc2c(OC)cccc2c1NCCCN(CC)CC,13.6
11,Cc1ccc(-n2cnc3cc(NCc4ccco4)ccc32)cc1,-2.65
12,COc1cccc(/C=c2/sc3n(c2=O)C(N)=C(C#N)C(c2cccc(OC)c2)C=3C#N)c1 (stereo not shown),13.2
13,COC(=O)C1=C(N)OC2=C(C(=O)CCC2)C1c1cc(CSc2nc3ccccc3s2)cs1 (stereo not shown),7.16
14,NS(=O)(=O)c1ccc(NC(=O)Nc2cccc3ccccc23)cc1,-1.32
15,O=C(CSc1nnc(-c2ccncc2)n1-c1ccccc1)NCc1ccc(F)cc1,1.88
16,CCOC(=O)c1[nH]c(C)c(C(=O)C(C)C)c1C,1.08
17,CCN1C(=O)C2(C(C#N)=C(N)Oc3[nH]nc(COC)c32)c2ccccc21 (stereo not shown),-0.968
18,C=CCNc1nnc(C)c2nnn(Cc3ccccc3Cl)c12,1.67
19,CC(=O)N(CCC(c1ccccc1)c1ccco1)Cc1ccc(OC(C)C)cc1 (stereo not shown),4.74
20,O=C(CSCc1c(Cl)cccc1Cl)NCC1CCCO1 (stereo not shown),2.38
21,CC(C)(C)c1[nH]nc2c1C1(C(=O)Nc3ccccc31)C(C#N)=C(N)O2 (stereo not shown),-2.53
22,Cc1ccc(C2=NS(=O)(=O)N(C)C(C(=O)Nc3ccn(Cc4ccccc4C)n3)=C2)cc1,0.655
23,COC(=O)c1ccccc1Nc1nc(-c2ccc(OC)cc2)cc(-c2ccc(OC)cc2)n1,3.06
24,COc1ccccc1C1=N/C(=C/c2ccc(C(=O)O)cc2)C(=O)O1,4.32
25,Cc1[nH]nc2c1C(c1cccc(O)c1)N(C)C2=O (stereo not shown),-10.6
